In assay [1] the target is FLAG-tagged PB1 (influenza A virus A/WSN/33 (H1N1)) (UniProt P03430). Nature of the assay: co-IP.
Assay [2] addresses FLAG-tagged PB2 (influenza A virus A/WSN/33 (H1N1)) (UniProt P03427). The experiment in a line: co-IP.

Amino acid sequences for entries named in this document (tags omitted).
UniProt P03430: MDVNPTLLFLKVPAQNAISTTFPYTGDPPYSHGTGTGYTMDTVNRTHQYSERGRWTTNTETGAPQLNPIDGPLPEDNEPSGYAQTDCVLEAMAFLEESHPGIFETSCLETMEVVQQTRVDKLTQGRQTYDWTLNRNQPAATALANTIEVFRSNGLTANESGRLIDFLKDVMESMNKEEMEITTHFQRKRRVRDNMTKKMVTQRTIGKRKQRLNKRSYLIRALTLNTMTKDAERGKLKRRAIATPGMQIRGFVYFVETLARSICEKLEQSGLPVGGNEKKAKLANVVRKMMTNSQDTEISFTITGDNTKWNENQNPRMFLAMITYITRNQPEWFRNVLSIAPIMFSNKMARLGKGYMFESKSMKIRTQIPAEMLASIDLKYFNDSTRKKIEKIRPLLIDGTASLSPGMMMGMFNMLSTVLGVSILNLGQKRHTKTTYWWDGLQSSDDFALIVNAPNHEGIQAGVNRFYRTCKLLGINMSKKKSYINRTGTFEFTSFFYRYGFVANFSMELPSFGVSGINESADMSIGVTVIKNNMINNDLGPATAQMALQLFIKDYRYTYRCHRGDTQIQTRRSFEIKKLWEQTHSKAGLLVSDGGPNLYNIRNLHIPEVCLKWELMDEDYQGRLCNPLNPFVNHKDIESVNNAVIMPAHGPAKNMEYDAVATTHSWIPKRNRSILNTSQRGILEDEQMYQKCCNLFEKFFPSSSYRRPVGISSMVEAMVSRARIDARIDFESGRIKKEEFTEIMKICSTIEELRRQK
UniProt P03427: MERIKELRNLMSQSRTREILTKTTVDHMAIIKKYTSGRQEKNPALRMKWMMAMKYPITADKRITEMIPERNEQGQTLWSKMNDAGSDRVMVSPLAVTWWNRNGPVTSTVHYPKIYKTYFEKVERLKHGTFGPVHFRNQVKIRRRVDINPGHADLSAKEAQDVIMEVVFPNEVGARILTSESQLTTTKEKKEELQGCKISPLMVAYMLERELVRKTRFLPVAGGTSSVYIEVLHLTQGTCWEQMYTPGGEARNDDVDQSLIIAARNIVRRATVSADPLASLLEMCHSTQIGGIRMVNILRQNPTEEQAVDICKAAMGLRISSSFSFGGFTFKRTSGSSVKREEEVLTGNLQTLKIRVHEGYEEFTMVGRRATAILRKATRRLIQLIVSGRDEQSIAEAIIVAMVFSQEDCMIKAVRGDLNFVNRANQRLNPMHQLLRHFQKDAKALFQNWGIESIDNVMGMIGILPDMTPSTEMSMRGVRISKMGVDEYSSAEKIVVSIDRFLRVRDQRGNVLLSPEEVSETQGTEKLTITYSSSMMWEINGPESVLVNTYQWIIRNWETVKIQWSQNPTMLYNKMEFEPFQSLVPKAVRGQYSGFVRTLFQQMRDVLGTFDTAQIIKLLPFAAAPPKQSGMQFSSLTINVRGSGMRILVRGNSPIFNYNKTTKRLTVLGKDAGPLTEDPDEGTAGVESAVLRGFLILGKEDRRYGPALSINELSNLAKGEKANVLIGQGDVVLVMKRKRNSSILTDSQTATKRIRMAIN
UniProt P15682: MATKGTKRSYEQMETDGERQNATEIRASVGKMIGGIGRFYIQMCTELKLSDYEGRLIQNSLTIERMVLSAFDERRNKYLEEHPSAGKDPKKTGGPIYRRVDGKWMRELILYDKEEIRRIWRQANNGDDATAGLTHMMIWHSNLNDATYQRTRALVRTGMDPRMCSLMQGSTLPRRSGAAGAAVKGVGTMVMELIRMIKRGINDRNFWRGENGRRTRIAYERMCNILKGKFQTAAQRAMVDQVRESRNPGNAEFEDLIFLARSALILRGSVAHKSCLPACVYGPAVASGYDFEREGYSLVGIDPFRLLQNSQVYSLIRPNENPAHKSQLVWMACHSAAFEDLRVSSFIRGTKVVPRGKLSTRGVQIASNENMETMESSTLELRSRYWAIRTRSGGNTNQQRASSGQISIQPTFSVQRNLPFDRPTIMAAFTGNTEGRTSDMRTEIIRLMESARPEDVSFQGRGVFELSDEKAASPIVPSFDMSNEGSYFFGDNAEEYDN

No constants are given. Whether binding was seen depends on the method and setting. In cells and extracts the contact can be indirect. Some binding calls cover weakened binding; strength is not graded here.

For the substance “Myc-tagged NP (from UniProt P15682 1-498)”, the binding entry in assay [1] and in assay [2] was “binds” in each case.

The record behind these values is publication PMC3160840.
